# Experimental data reported in PubChem BioAssay AID686978 (National Center for Advancing Translational Sciences (NCATS), 2013).
# Hit rate of the full screen: of about 420,000 compounds, about 64,000 (15%) were called active. The inconclusive results got no clear call from the source; some entries with a clear call stand among them for comparison. Calls follow the shape of the dose curve; as a rule, active = well fitted inhibition curve with a large enough effect; inconclusive = small, poorly fitted or top-dose-only effect; inactive = flat fitted curve, though single readings scatter. No potency is given beside an inconclusive call; the fits are too rough.
# Test: qHTS for Inhibitors of human tyrosyl-DNA phosphodiesterase 1 (TDP1): qHTS in cells in absence of CPT; also: nearly all actives have a fitted effect of over 55% in size
# Conditions: DT40 Tdp1-/- hTDP1 cells, no CPT, ATP luminescence, 48 h; activity change, negative = growth inhibition: at 46.2 µM (top of the series) unless noted
# Outline: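 Compound effects on proliferation are scored in DT40 Tdp1-/-;hTDP1 cells in the absence of CPT. ATP levels (CellTiter-Glo luminescence) are recorded after a ≥48 hr, 37 °C incubation.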
# % is scaled to controls: 0 for no effect and ±100 for the full control effect; potency is read from the fitted curve at half-maximal effect; tags tell the direction and shape of the fitted curve.
Compound,Potency,"activity change, negative = growth inhibition"
Cc1nc2cnc(Oc3cccc(Cl)c3)nc2n(C[C@H]2CCCO2)c1=O,"inconclusive [inhibitor, partial curve]",
CC(C)NC(=O)N1CC[C@@]2(CCCN(C(=O)Oc3ccccc3)C2)C1,inactive,
Cc1cc(C(=O)CSc2nc(N)cc(N)n2)c(C)n1CC1CCCO1 (stereo unspecified),"inconclusive [inhibitor, partial curve]",
O=[N+]([O-])c1cccc(Cl)c1NCCNc1ncc(C(F)(F)F)cc1Cl,"inconclusive [inhibitor, single point]",
COc1ccc(C2=Nn3c(nc4sc(C(=O)Nc5cccc(C)c5)c(C)c4c3=O)SC2)cc1,"inconclusive [inhibitor, partial curve]",
CCOc1ccc(-c2c(C#N)c(N)nc3c2c(=O)n(C)c(=O)n3C)cc1OC,inactive,
CC1(C)Cc2c(C#N)c(SCCC#N)nc(N3CCOCC3)c2CS1,"inconclusive [inhibitor, single point]",
COc1ccc(-c2csc(NC(=O)C3CSC4(C)CCC(=O)N34)n2)cc1 (stereo unspecified),inactive,
Cc1ccc(-n2nnnc2SCC(=O)c2c(N)n(C3CC3)c(=O)[nH]c2=O)cc1C,inactive,
Cc1ccc(OCCCn2ccnc2)c(Br)c1,"inconclusive [inhibitor, partial curve]",
COc1ccc(NC(=O)c2cc3c([nH]c2=O)CC(c2ccccc2)CC3=O)cc1 (stereo unspecified),inactive,
CC1S/C(=N/N=C2CCC(C(C)(C)C)CC2)NC1=O (stereo unspecified),"inconclusive [inhibitor, single point]",
O=[N+]([O-])c1cccc(/C=C2\CCc3cnn(C4CCS(=O)(=O)C4)c32)c1 (stereo unspecified),"inconclusive [inhibitor, single point]",
CCO[C@H]1OC(C(=O)NCc2nc3ccccc3[nH]2)=C[C@@H](C)[C@@H]1CCCO,"inconclusive [inhibitor, single point]",
Cc1cccc(Nc2ccccc2C(=O)OCC(=O)N(C)C2CCS(=O)(=O)C2)c1C (stereo unspecified),"inconclusive [inhibitor, single point]",
Cc1cccc(Oc2ncnc3oc(-c4ccccc4)cc23)c1C,"inconclusive [inhibitor, partial curve, poor fit]",
COc1ccc(NC(=O)Cn2c(=O)n(-c3ccc(CC(=O)NCC4CCCO4)cc3)c(=O)c3ccccc32)c(OC)c1 (stereo unspecified),inactive,
O=C(CSc1ncn(-c2ccccc2)n1)Nc1nc2c(s1)CCCC2,"inconclusive [inhibitor, partial curve, poor fit]",
COc1ccc(C(Nc2ccc(S(=O)(=O)NCC3CCCO3)cc2)C(=O)NC(C)(C)C)cc1OC (stereo unspecified),inactive,
Cc1ccc(-c2sc(C(=O)NN)c(C)c2C#N)cc1,"inconclusive [inhibitor, single point]",
CCc1ccc(OCC(=O)N(Cc2ccco2)Cc2ccco2)cc1,active: 20.6 µM,
CCOc1ccc(S(=O)(=O)NCc2ccccc2)cc1C(N)=O,"inconclusive [inhibitor, partial curve]",

Compound,Potency,"activity change, negative = growth inhibition"
COc1ccc2c(c1)[nH]c1c(=O)n(/N=C/c3ccc(OC)c(COc4ccccn4)c3)cnc12,"inconclusive [inhibitor, partial curve]",
Cc1ccc(NC(=O)C(OC(=O)c2cc(C)oc2C)c2ccccc2)cc1 (stereo unspecified),"inconclusive [inhibitor, single point]",
Cc1cccnc1NC(=O)C(C)N1C(=O)c2ccccc2C1=O (stereo unspecified),inactive,
Cc1nc([N+](=O)[O-])c(SCC(N)=O)n1Cc1ccccc1,"inconclusive [inhibitor, partial curve, poor fit]",
O=C(CNS(=O)(=O)c1cccs1)N1CCN(c2ccccn2)CC1,"inconclusive [inhibitor, single point]",
Cc1ccc(S(=O)(=O)/C(C#N)=C/c2c(N3CCOCC3)nc3c(C)cccn3c2=O)cc1,,inconclusive: -30.9% [inhibitor]
N#C/C(=C\c1ccc(Sc2nc3ccccc3[nH]2)o1)c1ccccc1,active: 18.4 µM,
CC1(C)Cc2c(C#N)c(N3CCN(C(=O)c4ccco4)CC3)nc(-c3ccco3)c2CS1,"inconclusive [inhibitor, single point]",
COCC(C)N1C(=O)Cc2c1nc(N)c1c(N)nc(N3CCN(c4ccccc4F)CC3)c(C#N)c21 (stereo unspecified),active: 25.9 µM,
Cc1ccc(NC(=O)COC(=O)C2(CC(=O)NC(C)(C)C)CCCC2)cc1C,"inconclusive [inhibitor, single point]",
COc1ccc(OC)c(N(CC(=O)NCCSCc2ccco2)S(=O)(=O)c2ccccc2)c1,active: 14.6 µM,
COC(=O)c1cccc(-n2c(C)cc(C=O)c2C)c1C,"inconclusive [inhibitor, single point]",
CC(C)Oc1ccc(CNC(=S)N/N=C/c2cccnc2)cc1,"inconclusive [inhibitor, single point]",
Cc1cccc(NC(=S)NCc2ccccc2Cl)c1C,"inconclusive [inhibitor, single point]",
O=C(C[n+]1cccc2cccc(O)c21)c1ccc(F)cc1,"inconclusive [inhibitor, single point]",
COc1ccc(-c2nn(-c3ccccc3)cc2CNCCN2CCOC2=O)c(F)c1,"inconclusive [inhibitor, single point]",
O=C(C1CCN(c2nc3ccccc3[nH]2)CC1)N1CCN(c2ccccc2)CC1,"inconclusive [inhibitor, single point]",
CCOc1ccccc1CN1CCC(Oc2ccc(C(=O)NCc3ccccn3)cc2)CC1,"inconclusive [inhibitor, single point]",
COc1ccccc1NC(=O)CCn1nc(-c2ccccc2)c2ccccc2c1=O,"inconclusive [inhibitor, single point]",
CC(=O)N1CCN(c2ccc(NC(=O)c3ccc4c(c3)OCO4)cc2)CC1,inactive,
COc1cc(NC(=O)c2ccco2)c(OC)cc1NC(=O)CSc1ncc(-c2ccc(F)cc2)[nH]1,active: 25.9 µM,
Cc1ccc(S(=O)(=O)Nc2cccc(C(=O)N3CCN(c4ccccc4O)CC3)c2)cc1F,"inconclusive [inhibitor, single point]",

Compound,Potency,"activity change, negative = growth inhibition"
CCOC(=O)C1(Cc2cccc(F)c2)CCN(Cc2cnn(CC)c2C)CC1,"inconclusive [inhibitor, partial curve, poor fit]",
COc1ccccc1-c1oc2ccccc2c1C#CC(C)(C)O,"inconclusive [inhibitor, single point]",
COc1cc(C2C3C(=O)N(Cc4ccccc4)C(=O)C3ON2c2ccccc2)cc(OC)c1O (stereo unspecified),"inconclusive [inhibitor, single point]",
Cc1cccc(-c2noc(-c3ccc(NCC4CCCO4)c([N+](=O)[O-])c3)n2)c1 (stereo unspecified),"inconclusive [inhibitor, partial curve]",
CCC(N=c1cc(-c2ccc(OC)cc2)oc2ccc(C)cc12)C(=O)O (stereo unspecified),,inconclusive: -33.1% [inhibitor]
CN(C(=O)c1ccc2c(c1)N(Cc1ccccc1F)C(=O)c1ccccc1S2)C1CCCCC1,active: 23.1 µM,
COc1cccc(CC2(CO)CCCN(Cc3cn[nH]c3-c3cc(C)ccc3C)C2)c1 (stereo unspecified),"inconclusive [inhibitor, partial curve, poor fit]",
Cc1cccc(NCc2nnc3n2CCCCC3)c1C,"inconclusive [inhibitor, single point]",
COc1ccc(NC(=O)CN2C(=O)C(C)Oc3ccccc32)cc1OC (stereo unspecified),"inconclusive [inhibitor, single point]",
C[C@@H]1CN([C@@H](C)CO)S(=O)(=O)c2ccc(Br)cc2O[C@H]1CN(C)C(=O)c1ccccc1,"inconclusive [inhibitor, single point]",
COc1cc(SC)ccc1C(=O)Nc1c(C)cccc1C,active: 13 µM,
COc1ccccc1N1CCN(c2nc3ccc(C)cc3nc2-n2nc(C)cc2C)CC1,active: 20.6 µM,
COC(=O)c1c(C)[nH]c(C(=O)C(C)OC(=O)c2ccco2)c1C (stereo unspecified),"inconclusive [inhibitor, partial curve, poor fit]",
CC(C)(C)C(=O)NC(=S)NNC(=O)C(c1ccccc1)c1ccccc1,active: 3.66 µM,
CC(C)NC(=O)N(C)C[C@H]1Oc2ccc(NC(=O)C3CCCCC3)cc2C(=O)N([C@H](C)CO)C[C@@H]1C,inactive,
O=C(Nc1c(C(=O)N2CCC(N3CCCCC3)CC2)oc2ccccc12)c1c(F)cccc1F,inactive,
COc1ccccc1C(=O)OCC(=O)N1CCC(Cc2ccccc2)CC1,"inconclusive [inhibitor, single point]",
Cn1cc(S(=O)(=O)c2ccccc2)c(=O)c2cc(F)c(N3CCN(c4ccc(F)cc4)CC3)cc21,"inconclusive [inhibitor, single point]",
Cc1cc2c(cc1C)-c1nnnn1C(N1CCCC1)C(=O)N2 (stereo unspecified),"inconclusive [inhibitor, single point]",
CN(Cc1ccccc1)C(=S)Nc1ccc2nc3n(c(=O)c2c1)CCCCC3,"inconclusive [inhibitor, single point]",
CC(C(=O)Nc1ccncc1)(c1ccccc1)c1ccccc1,inactive,
O=C(CSCC(=O)Nc1cccc([N+](=O)[O-])c1)Nc1ccccc1,inactive,
